# In PubChem BioAssay AID485344 (National Center for Advancing Translational Sciences (NCATS), 2010):
# About 6,900 (2%) of roughly 340,000 compounds were called active. Cut-off read from the data, not from the text of the source: active = inhibition above about 30%; inactive = below that, where a call was filed. This is a selection; strong and weak results do not stand in their true shares. Where no call is shown, the source filed none.
# Target: D(2) dopamine receptor (Homo sapiens) (UniProt P14416)
# Test: HTS Assay for Allosteric Antagonists of the Human D2 Dopamine Receptor: Primary Screen for Antagonists; note: 0% is about no effect
# Conditions: HEK293 TREx D2 cells, calcium flux, dopamine EC80; at 10 µM; stronger effect = higher value
# Outline: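 Calcium flux kinetic readout in an inducible HEK293 TREx D2 line plated overnight at 30 C. After 180 s compound exposure, an EC80 dopamine challenge follows with another 180 s kinetic read to detect antagonism.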
# Chain of UniProt P14416 (P14416 whole entry, looked up): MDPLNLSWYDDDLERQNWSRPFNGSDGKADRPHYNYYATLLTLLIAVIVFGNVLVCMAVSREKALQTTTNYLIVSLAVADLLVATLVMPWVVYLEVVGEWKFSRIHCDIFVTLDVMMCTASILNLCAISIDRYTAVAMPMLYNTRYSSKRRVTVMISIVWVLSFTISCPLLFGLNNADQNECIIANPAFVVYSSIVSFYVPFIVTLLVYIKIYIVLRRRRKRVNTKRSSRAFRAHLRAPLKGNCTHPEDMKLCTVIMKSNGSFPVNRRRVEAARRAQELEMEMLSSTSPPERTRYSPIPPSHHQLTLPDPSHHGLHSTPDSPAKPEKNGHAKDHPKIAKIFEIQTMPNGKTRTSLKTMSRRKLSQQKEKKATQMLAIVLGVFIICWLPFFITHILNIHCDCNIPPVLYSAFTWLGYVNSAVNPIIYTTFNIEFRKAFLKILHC
row,Compound,inhibition
1,Cc1ccc(N2CC(C(=O)NCCS(=O)(=O)N3CCN(c4ccccc4)CC3)CC2=O)cc1 (stereo unspecified),11.4%
2,FC(F)(F)c1cccc(-n2cc(-c3ccccc3)c3c(N4CCCCC4)ncnc32)c1,19.1%
3,CC1(C)C(=O)NC(=O)N1Cc1ccccc1,active: 44.8%
4,CCOC(=O)C1CCN(c2nc3c(S(=O)(=O)c4ccc(Br)cc4)nnn3c3ccsc23)CC1,1.1%
5,COc1ccc(CCNC(=O)Cn2cc(C(=O)c3ccc(Cl)cc3)c(=O)c3ccc(C)nc32)cc1OC,1.58%
6,O=C(CSc1nc(-c2cccs2)nc2cc(=O)[nH]n12)Nc1ccccc1,-0.353%
7,COc1ccccc1CNC(=O)CN1C(=O)CCc2cc(S(=O)(=O)N3CCCCC3)ccc21,0.409%
8,COc1ccc(C(=O)NCCn2cc(SCc3cccc(F)c3)c3ccccc32)cc1OC,-6.4%
9,O=C(CSC1=NCCN1)Nc1cccc(C(F)(F)F)c1,active: 75.4%
10,CCc1ccc(NC(=O)CC(c2cc(OC)c(OC)c(OC)c2)N2Cc3ccccc3C2=O)cc1 (stereo unspecified),3.54%
11,COc1ccccc1-c1noc(-c2ccc(N3CCOCC3)c([N+](=O)[O-])c2)n1,-4.23%
12,COC(=O)c1ccc(-n2c(C)cc(/C=N/n3cnnc3)c2C)cc1,active: 30.7%
13,CC(C)Cn1c(=O)c2ccccc2n2c(CCC(=O)N3CCN(c4cccc(Cl)c4)CC3)nnc12,-12.7%
14,CC(=O)c1ccc(N2CCN(c3ncnc4c3c(-c3ccccc3)cn4-c3ccc(C)c(Cl)c3)CC2)cc1,1.79%
15,COCCCN(Cc1ccco1)C(=O)c1cc2c(s1)-c1ccccc1OC2,-2.63%
16,CC1CCN(C(=O)c2ccc3c(c2)N(Cc2ccccc2F)C(=O)c2ccccc2S3(=O)=O)CC1,-0.142%
17,Cc1c(Cl)cccc1-n1ncc(C(=O)N2CCN(C)CC2)c1C1CCN(C(=O)OC(C)(C)C)CC1,7.22%
18,Cc1nc(-c2cccc(S(=O)(=O)N3CCOCC3)c2)cs1,active: 34.7%
19,COc1ccc(S(=O)(=O)n2nc(C)c(S(=O)(=O)N3CCCCC3)c2C)cc1,-15%
20,C/C(O)=C(/C=Nc1ccccc1)C(=O)Nc1ccccc1,active: 33%
21,COc1ccccc1N1CCN(C(=O)c2cc3c(=O)n(C)c4ccccc4c3s2)CC1,-2.04%

row,Compound,inhibition
1,COc1ccc(-c2nc(SCC(=O)NC3CCCC3)c(-c3ccc(OC)cc3)[nH]2)cc1,14.4%
2,Cn1cccc1-c1cc(C(=O)N/N=C/c2ccc(Cl)cc2)[nH]n1,active: 35%
3,Cc1ccccc1-c1noc(-c2ccc(N3CCN(c4ccccc4)CC3)c([N+](=O)[O-])c2)n1,-2.87%
4,CC(C)c1ccccc1NC(=O)CNCCOc1ccccc1F,active: 46.1%
5,COCCCNc1nc(N)c([N+](=O)[O-])c(NC2CCCCC2)n1,active: 30.4%
6,CC(=O)OCc1cc(=O)n2nc(C3CCCCC3)sc2n1,-17.4%
7,Cc1ccc(C(=O)NCCc2c[nH]c3ccccc23)c(C)c1,active: 73.8%
8,O=C(COc1ccccc1)Nc1sc2c(c1C(=O)Nc1ccccc1Cl)CCCCC2,1.38%
9,CCN(Cc1nc(-c2cccc(C)c2)no1)S(=O)(=O)c1ccc(C)cc1,24.9%
10,CCNC(=O)COC(=O)CCC(=O)c1cccs1,active: 51.3%
11,Cc1cccc(C)c1NC(=O)CN1C(=O)CCSc2ccc(S(=O)(=O)N3CCCC3)cc21,-1.92%
12,COc1ccc(N(CC(=O)Nc2ccc(C)c(C)c2)S(=O)(=O)c2ccc(C)cc2)cc1OC,-23.5%
13,Cc1ccc(C)c(N2C(=O)N(Cc3c(F)cccc3Cl)c3ccccc3S2(=O)=O)c1,-1.01%
14,COC(=O)c1cc(NC(=O)Nc2ccc3snnc3c2)cc(C(=O)OC)c1,13.4%
15,CCCOc1ccc(/C=C/C(=O)Nc2sc(C)c(C)c2C(=O)OCC)cc1OC,-5.32%
16,CCCOc1ccc(NC(=O)CC2C(=O)N(c3ccc(C)cc3)C(=O)N2C(C)C)cc1 (stereo unspecified),12.1%
17,CCCN1CCN(CCCNC(=O)c2cc3c(Cl)nc4ccccc4c3s2)CC1,-24.2%
18,Cc1nnc(SCc2cc(=O)c3ccccc3[nH]2)s1,-8.3%
19,Cc1nc(S(=O)(=O)N2CCN(c3ccc(Cl)cc3)CC2)cn1C,-6.43%
20,CCOc1ccc(S(=O)(=O)NCCc2csc(-c3ccc(Cl)cc3)n2)cc1,-5.62%
21,CCOc1ccc(CCNC(=O)c2ccc(-c3nc(CSc4ccc(C)cc4)c(C)o3)cc2)cc1,-16.6%

row,Compound,inhibition
1,COc1ccc(NC2=Nc3ccccc3CC2)cc1,active: 46.2%
2,Cc1cc(C)cc(Nc2ncnc3c2nc2n3CCCC2)c1,1.97%
3,COc1ccc(N2CC(NC(=O)COc3ccccc3F)CC2=O)cc1OC (stereo unspecified),1.3%
4,CC(C)CCNC(=O)CN1C(=O)CCn2nc(-c3cn(C)c4ccccc34)cc21,-1.68%
5,COc1ccc(C)c2sc(NC(=O)c3ccc(S(=O)(=O)N4CCCCC4)cc3)nc12,4.76%
6,CCOc1ccc(NC(=O)CSc2oc(-c3ccco3)nc2S(=O)(=O)c2ccc(C)cc2)cc1,11.3%
7,CCn1c2ccccc2c2nnc(N3CCN(c4ccc(F)cc4)CC3)nc21,13.3%
8,COc1ccc(NC(=O)c2ccc(CN3C(=O)CCn4nc(C)cc43)cc2)c(OC)c1,4.94%
9,CCOC(=O)c1c(NC(=O)COc2cccc(C(F)(F)F)c2)sc2c1CCC(C)C2 (stereo unspecified),-4.53%
10,CCOC(=O)c1cc2c(=O)n3ccccc3nc2n(CC2CCCO2)c1=NC(=O)c1ccc(C(C)(C)C)cc1 (stereo unspecified),-8.34%
11,Cc1nc2sc(C(=O)N(C)Cc3ccccc3)c(NC(=O)c3ccccc3)c2c(C)c1Cl,-0.792%
12,CCOc1ccc(CNC(=O)c2ccc(Sc3ccc(Cl)cc3)c(NC(C)=O)c2)cc1,-6.97%
13,COc1ccc(NC(=O)CSc2cn(CC(=O)N3CCCCC3)c3ccccc23)c(OC)c1,11.4%
14,COc1ccc(C(CNC(=O)c2ccc(C)c(S(=O)(=O)Nc3ccccc3OC)c2)N2CCCC2)cc1 (stereo unspecified),active: 48.9%
15,CCCC(=O)Nc1ccc2c(c1)nc(CN1CCN(C(=O)OCC)CC1)n2C(C)C,-9.47%
16,CCC1CN(C(=O)NCc2cccc(OC)c2)c2cc(Cl)ccc2O1 (stereo unspecified),6.03%
17,Cc1ccccc1C(=O)c1cccn1CC(=O)NCc1ccc(Cl)cc1,-6.57%
18,Cc1ccc2c(CN3CCN(Cc4ccccc4Cl)CC3)cc(=O)oc2c1,-11.4%
19,COc1ccc(CCNC(=O)CCCn2c(=O)c3cccn3c3cccnc32)cc1OC,5.24%
